Read-outs that look alike come from different tables or passages of the source. Results are given in words; binding and its absence hold for the method and conditions named. For some assays here: Binding seen in cells or lysates may run through a third protein. Some binding calls cover weakened binding; strength is not graded here. For some assays here: Sequences can lack the tags named with a protein.
Experiments:
[1] = target: T1, GST-fused pK15 cytoplasmic tail (pK15 CT WT), phosphorylated in vitro by Src (Kaposi Sarcoma-associated herpesvirus (KSHV, HHV-8)) (UniProt Q9QR69); assay: pull-down; GST-pK15 CT proteins on glutathione beads, phosphorylated in vitro by Src or left unphosphorylated, incubated overnight at 4°C with HEK-293T lysate (transfected or untransfected) in IP buffer (50 mM Tris pH7.6, 60 mM NaCl) with phosphatase inhibitors; Western blot; only the target purified
T1 sequence (chain, phosphotyrosine at Y481 (dominant band) and Y431 (minor band), in vitro by Src): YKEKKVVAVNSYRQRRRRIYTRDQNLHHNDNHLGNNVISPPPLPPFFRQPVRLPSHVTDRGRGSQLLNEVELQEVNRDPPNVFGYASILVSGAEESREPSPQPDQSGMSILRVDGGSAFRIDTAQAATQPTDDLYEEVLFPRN

[2] = target: T1, GST-fused pK15 cytoplasmic tail (pK15 CT WT), phosphorylated in vitro by Src (Kaposi Sarcoma-associated herpesvirus (KSHV, HHV-8)); assay: as above; remark: listed apart in the source
[3] = target: T2, 5,6-FAM-labelled phosphorylated pK15 12mer peptide (Kaposi Sarcoma-associated herpesvirus (KSHV, HHV-8)); assay: microfluidic diffusional sizing (Fluidity One-W); 200 nM 5,6-FAM peptide held constant, PLCγ1 domains varied from 0 nM to 8000 nM, room temperature, 100 mM MES, 150 mM NaCl, 3 mM TCEP, pH 6.5; hydrodynamic radius fitted; triplicate; both purified
T2 sequence (peptide, phosphotyrosine at Y481 (4th residue); 5,6-FAM at the N-terminus): DDLYEEVLFPRN

[4] = target: T3, PLCγ1 cSH2 domain (aa 668-790) (UniProt P19174); assay: NMR titration; 1H-15N HSQC of 15N-labelled nSH2 or cSH2 (100 μM) with increasing pK15 12mer peptide up to 2 molar equivalents, 600 MHz, 298 K, 100 mM MES, 150 mM NaCl, 3 mM TCEP, pH 6.5; both purified
T3 sequence: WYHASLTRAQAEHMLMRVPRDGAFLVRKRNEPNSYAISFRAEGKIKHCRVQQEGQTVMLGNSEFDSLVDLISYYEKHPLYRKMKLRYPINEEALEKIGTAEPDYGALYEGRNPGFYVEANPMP

With “S-tagged full length PLCγ1 R694L (from UniProt P19174 1-1290)” the binding [1] was “binds”.

“S-tagged full length PLCγ1 R586L (from UniProt P19174 1-1290)” was tested, and the binding [1] was “binds”.

“S-tagged full length PLCγ1 R586L+R694L double mutant (from UniProt P19174 1-1290)” was tested, and the binding [1] was “binds”.

B1: S-tagged full length PLCγ1, transfected (protein, UniProt P19174 1-1290)
chain: MAGAASPCANGCGPGAPSDAEVLHLCRSLEVGTVMTLFYSKKSQRPERKTFQVKLETRQITWSRGADKIEGAIDIREIKEIRPGKTSRDFDRYQEDPAFRPDQSHCFVILYGMEFRLKTLSLQATSEDEVNMWIKGLTWLMEDTLQAPTPLQIERWLRKQFYSVDRNREDRISAKDLKNMLSQVNYRVPNMRFLRERLTDLEQRSGDITYGQFAQLYRSLMYSAQKTMDLPFLEASTLRAGERPELCRVSLPEFQQFLLDYQGELWAVDRLQVQEFMLSFLRDPLREIEEPYFFLDEFVTFLFSKENSVWNSQLDAVCPDTMNNPLSHYWISSSHNTYLTGDQFSSESSLEAYARCLRMGCRCIELDCWDGPDGMPVIYHGHTLTTKIKFSDVLHTIKEHAFVASEYPVILSIEDHCSIAQQRNMAQYFKKVLGDTLLTKPVEISADGLPSPNQLKRKILIKHKKLAEGSAYEEVPTSMMYSENDISNSIKNGILYLEDPVNHEWYPHYFVLTSSKIYYSEETSSDQGNEDEEEPKEVSSSTELHSNEKWFHGKLGAGRDGRHIAERLLTEYCIETGAPDGSFLVRESETFVGDYTLSFWRNGKVQHCRIHSRQDAGTPKFFLTDNLVFDSLYDLITHYQQVPLRCNEFEMRLSEPVPQTNAHESKEWYHASLTRAQAEHMLMRVPRDGAFLVRKRNEPNSYAISFRAEGKIKHCRVQQEGQTVMLGNSEFDSLVDLISYYEKHPLYRKMKLRYPINEEALEKIGTAEPDYGALYEGRNPGFYVEANPMPTFKCAVKALFDYKAQREDELTFIKSAIIQNVEKQEGGWWRGDYGGKKQLWFPSNYVEEMVNPVALEPEREHLDENSPLGDLLRGVLDVPACQIAIRPEGKNNRLFVFSISMASVAHWSLDVAADSQEELQDWVKKIREVAQTADARLTEGKIMERRKKIALELSELVVYCRPVPFDEEKIGTERACYRDMSSFPETKAEKYVNKAKGKKFLQYNRLQLSRIYPKGQRLDSSNYDPLPMWICGSQLVALNFQTPDKPMQMNQALFMTGRHCGYVLQPSTMRDEAFDPFDKSSLRGLEPCAISIEVLGARHLPKNGRGIVCPFVEIEVAGAEYDSTKQKTEFVVDNGLNPVWPAKPFHFQISNPEFAFLRFVVYEEDMFSDQNFLAQATFPVKGLKTGYRAVPLKNNYSEDLELASLLIKIDIFPAKENGDLSPFSGTSLRERGSDASGQLFHGRAREGSFESRYQQPFEDFRISQEHLADHFDSRERRAPRRTRVNGDNRL
For B1, the binding [2] was “binds”.

B2: endogenous PLCγ1 of HEK-293T cells (protein, UniProt P19174 1-1290)
chain: MAGAASPCANGCGPGAPSDAEVLHLCRSLEVGTVMTLFYSKKSQRPERKTFQVKLETRQITWSRGADKIEGAIDIREIKEIRPGKTSRDFDRYQEDPAFRPDQSHCFVILYGMEFRLKTLSLQATSEDEVNMWIKGLTWLMEDTLQAPTPLQIERWLRKQFYSVDRNREDRISAKDLKNMLSQVNYRVPNMRFLRERLTDLEQRSGDITYGQFAQLYRSLMYSAQKTMDLPFLEASTLRAGERPELCRVSLPEFQQFLLDYQGELWAVDRLQVQEFMLSFLRDPLREIEEPYFFLDEFVTFLFSKENSVWNSQLDAVCPDTMNNPLSHYWISSSHNTYLTGDQFSSESSLEAYARCLRMGCRCIELDCWDGPDGMPVIYHGHTLTTKIKFSDVLHTIKEHAFVASEYPVILSIEDHCSIAQQRNMAQYFKKVLGDTLLTKPVEISADGLPSPNQLKRKILIKHKKLAEGSAYEEVPTSMMYSENDISNSIKNGILYLEDPVNHEWYPHYFVLTSSKIYYSEETSSDQGNEDEEEPKEVSSSTELHSNEKWFHGKLGAGRDGRHIAERLLTEYCIETGAPDGSFLVRESETFVGDYTLSFWRNGKVQHCRIHSRQDAGTPKFFLTDNLVFDSLYDLITHYQQVPLRCNEFEMRLSEPVPQTNAHESKEWYHASLTRAQAEHMLMRVPRDGAFLVRKRNEPNSYAISFRAEGKIKHCRVQQEGQTVMLGNSEFDSLVDLISYYEKHPLYRKMKLRYPINEEALEKIGTAEPDYGALYEGRNPGFYVEANPMPTFKCAVKALFDYKAQREDELTFIKSAIIQNVEKQEGGWWRGDYGGKKQLWFPSNYVEEMVNPVALEPEREHLDENSPLGDLLRGVLDVPACQIAIRPEGKNNRLFVFSISMASVAHWSLDVAADSQEELQDWVKKIREVAQTADARLTEGKIMERRKKIALELSELVVYCRPVPFDEEKIGTERACYRDMSSFPETKAEKYVNKAKGKKFLQYNRLQLSRIYPKGQRLDSSNYDPLPMWICGSQLVALNFQTPDKPMQMNQALFMTGRHCGYVLQPSTMRDEAFDPFDKSSLRGLEPCAISIEVLGARHLPKNGRGIVCPFVEIEVAGAEYDSTKQKTEFVVDNGLNPVWPAKPFHFQISNPEFAFLRFVVYEEDMFSDQNFLAQATFPVKGLKTGYRAVPLKNNYSEDLELASLLIKIDIFPAKENGDLSPFSGTSLRERGSDASGQLFHGRAREGSFESRYQQPFEDFRISQEHLADHFDSRERRAPRRTRVNGDNRL
B2 was tested, and the binding [2] was “binds”.

B3: PLCγ1 nSH2 R586L (aa 545-662) (domain or fragment, UniProt P19174 545-662)
chain: HSNEKWFHGKLGAGRDGRHIAERLLTEYCIETGAPDGSFLVLESETFVGDYTLSFWRNGKVQHCRIHSRQDAGTPKFFLTDNLVFDSLYDLITHYQQVPLRCNEFEMRLSEPVPQTNA
B3 was tested, and the binding [3] was “no binding (tested: up to 8000 nM PLCγ1 domain)”.

In the case of DDLYEEVLFPRN (phosphotyrosine at Y481 (4th residue)) [phosphorylated 12mer pK15 peptide], the binding [4] is reported as “binds”.

B4: PLCγ1 cSH2 R694L (aa 668-790) (domain or fragment, UniProt P19174 668-790)
chain: WYHASLTRAQAEHMLMRVPRDGAFLVLKRNEPNSYAISFRAEGKIKHCRVQQEGQTVMLGNSEFDSLVDLISYYEKHPLYRKMKLRYPINEEALEKIGTAEPDYGALYEGRNPGFYVEANPMP
For B4, the binding [3] was “no binding (tested: up to 8000 nM PLCγ1 domain)”.

Reference: publication PMC8244865, “Recruitment of phospholipase Cγ1 to the non-structural membrane protein pK15 of Kaposi Sarcoma-associated herpesvirus promotes its Src-dependent phosphorylation” (PLoS Pathogens, 2021)
